# Measured values taken from paper PMC4336329 (PLoS ONE, 2015).
# Screen size: about 310,000 compounds; about 14,000 (4.5%) showed an effect of 50% or more. The effect is printed as a negative number. This is one part of the list.
# Molecular target: human ether-à-go-go-related gene (hERG) potassium channel (human, UniProt Q12809)
# Assay: primary screen, population patch clamp on CHO cells stably expressing hERG
# 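Note: peak tail current of the secondary pulse compared with the same well before compound.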
# Chain of human ether-à-go-go-related gene (hERG) potassium channel (Q12809 whole entry, looked up): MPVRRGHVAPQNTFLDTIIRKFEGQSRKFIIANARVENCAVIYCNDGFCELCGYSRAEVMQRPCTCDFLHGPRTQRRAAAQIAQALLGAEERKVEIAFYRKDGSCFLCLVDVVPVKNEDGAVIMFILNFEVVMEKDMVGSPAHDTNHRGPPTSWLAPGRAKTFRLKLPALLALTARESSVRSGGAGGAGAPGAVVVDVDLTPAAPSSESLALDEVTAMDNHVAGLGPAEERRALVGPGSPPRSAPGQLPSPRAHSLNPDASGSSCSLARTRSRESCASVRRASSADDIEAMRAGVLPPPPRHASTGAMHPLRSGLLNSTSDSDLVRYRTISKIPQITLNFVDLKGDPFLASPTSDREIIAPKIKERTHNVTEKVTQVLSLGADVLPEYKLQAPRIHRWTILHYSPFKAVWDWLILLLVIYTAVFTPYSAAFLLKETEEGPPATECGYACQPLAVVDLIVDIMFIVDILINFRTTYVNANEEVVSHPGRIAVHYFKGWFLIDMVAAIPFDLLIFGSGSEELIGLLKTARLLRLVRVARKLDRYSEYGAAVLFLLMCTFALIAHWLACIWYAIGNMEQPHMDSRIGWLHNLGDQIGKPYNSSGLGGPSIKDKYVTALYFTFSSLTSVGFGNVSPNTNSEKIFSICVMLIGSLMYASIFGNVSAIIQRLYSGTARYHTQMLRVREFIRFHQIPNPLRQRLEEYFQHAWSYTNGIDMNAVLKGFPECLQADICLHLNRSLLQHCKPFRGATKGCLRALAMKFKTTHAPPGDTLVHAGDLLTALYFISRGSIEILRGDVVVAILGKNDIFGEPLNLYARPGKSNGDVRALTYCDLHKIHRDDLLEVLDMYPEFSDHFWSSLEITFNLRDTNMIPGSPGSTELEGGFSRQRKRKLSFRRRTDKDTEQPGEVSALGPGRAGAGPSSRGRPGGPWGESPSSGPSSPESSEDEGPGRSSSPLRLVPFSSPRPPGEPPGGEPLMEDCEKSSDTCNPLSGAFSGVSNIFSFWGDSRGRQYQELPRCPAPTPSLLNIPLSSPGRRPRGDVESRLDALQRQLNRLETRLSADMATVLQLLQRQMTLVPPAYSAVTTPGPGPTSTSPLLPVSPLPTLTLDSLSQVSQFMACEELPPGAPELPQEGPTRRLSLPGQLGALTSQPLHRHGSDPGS
row,SMILES,"hERG current change (%, negative = inhibition) at 10uM [%]"
1,N#C/C(=C(/O)c1ccc(Cl)cc1)c1nc2ccccc2[nH]1,7.3
2,O=C(NCCC1=CCCCC1)c1ccc(Cl)c(S(=O)(=O)Nc2ccccc2)c1,11.5
3,COc1ccc(CN(C)C(=O)Cn2ccc(NC(=O)OCc3ccccc3)nc2=O)cc1OC,-20.4
4,COc1cc(/C=C2/NC(=O)NC2=O)cc(Br)c1OCc1cccc(C(=O)O)c1,19.2
5,N#CCCn1nnc2ccccc21,5.87
6,COc1ccc(Cn2c(O)c(/C=N/NC(=O)c3ccncc3)c(=O)[nH]c2=O)cc1,13.3
7,COc1ccc(-n2c(Cc3cccn3C)nnc2SCC(=O)NCC2CCCO2)cc1 (stereo not drawn),8.01
8,CCOC(=O)C1=C(C)N(C)C(=S)NC1c1ccccc1Cl (stereo not drawn),-5.25
9,CCOC(=O)CCS(=O)(=O)c1ccc(-c2ccc(S(=O)(=O)CCC(=O)OCC)cc2)cc1,-22.7
10,COc1cccc(CNC(=O)C2CCC(CNc3nc(=S)[nH]c4ccccc34)CC2)c1 (stereo not drawn),7.39
11,CC1(C)CC(=O)c2c(oc3cc(O)c(O)cc23)C1,1.26
12,CC(C)(C)c1cccc(Oc2nn[nH]n2)c1,1.15
13,CCOC(=O)c1cc2c(nc1NC(=S)Nc1ccccc1)CC(C)(CC)OC2 (stereo not drawn),18.5
14,Cc1ccccc1NC(=O)Nc1c(C)n(C)n(-c2ccccc2)c1=O,-31.8
15,CCCc1nnc(NC(=O)CCC(=O)Nc2ccc(F)cc2)s1,0.689
16,Cc1ccc(C)c(OC(C)C(=O)Nc2ccc(S(=O)(=O)Nc3nccs3)cc2)c1 (stereo not drawn),-6.04
17,CCOC(=O)C(NC(C)=O)(Nc1ccc(S(=O)(=O)Nc2onc(C)c2C)cc1)C(F)(F)F (stereo not drawn),14.3
18,Cc1ccccc1S(=O)(=O)Cc1ccc(C(=O)NCCCN2CCCC(C)C2)o1 (stereo not drawn),-21.1
19,O=C(c1cccnc1)N1CCN(c2ccc([N+](=O)[O-])cc2Cl)CC1,-65
20,CC(=O)c1ccc(NC(=S)N2CCN(S(=O)(=O)c3ccc(F)cc3)CC2)cc1,-38.1
21,COc1ccc(OC)c(/C=N/NC(=O)c2[nH]nc3c2CCc2ccccc2-3)c1,21.3
22,CC(=O)Nc1ccc(S(=O)(=O)N2CCN(c3cc4c(cc3[N+](=O)[O-])n(C)c(=O)n4C)CC2)cc1,-16.3

row,SMILES,"hERG current change (%, negative = inhibition) at 10uM [%]"
1,CCCc1cc(=O)[nH]c2nnc(SCC(=O)Nc3cccc(NC(C)=O)c3)n12,6.51
2,COCCCNc1ncnc2nc[nH]c12,1.95
3,CCCN(CC(=O)Nc1ccc(F)c(F)c1F)C(=O)C1CC(=O)N(Cc2ccccc2)C1 (stereo not drawn),-26.9
4,Cc1ccc(OCC(=O)Oc2cccc(C)c2C)cc1,12.6
5,Cc1ccccc1C1CC(c2ccc(Br)cc2)Nc2nc(N)nn21 (stereo not drawn),-52.3
6,CSc1cccc(NS(=O)(=O)c2cn(C)cn2)c1,5.72
7,COc1c(C)cccc1C(=O)NCc1ccc2c(c1)OCO2,-2.64
8,CC(C)C(=O)Nc1cccc(-c2csc(-c3ccccc3)n2)c1,0.558
9,O=C(CN(C(=O)CCC(=O)Nc1nccs1)c1ccc(F)cc1)NCC1CCCO1 (stereo not drawn),5.64
10,Cc1ccc(S(=O)(=O)N(CC(=O)Nc2ccc(F)cc2)C(=O)N2CCN(C)CC2)cc1,10.1
11,COc1ccc(CNC(=O)COC(=O)[C@H](Cc2c[nH]c3ccccc23)NC(=O)c2cccs2)cc1,-0.701
12,COc1cc2oc(=O)c(Br)c(C)c2c(OC)c1OC,-9.68
13,Cc1ccc(OCc2nnc(SCC(=O)Nc3nccs3)n2-c2ccccc2)cc1C,15.8
14,COc1ccc(OC)c(-n2c(=S)[nH]c3cc(C(=O)N4CCC(C(N)=O)CC4)ccc3c2=O)c1,-2.14
15,COc1cccc(-c2cc(C(=O)N3CCCCCC3)no2)c1,-14.6
16,Cc1cccc(N=C/C(C(=O)C(F)(F)F)=C(\O)c2ccco2)c1,-16.8
17,COc1cc2ccccc2cc1C(=O)Nc1ccc(S(=O)(=O)Nc2cc(C)on2)cc1,-9.57
18,COc1ccccc1NC(CC(=O)c1ccccc1)C(=O)OCC(=O)c1ccc(C)cc1 (stereo not drawn),0.733
19,CS(=O)(=O)N(CC(=O)NCc1ccccn1)c1ccc2c(c1)OCCO2,7.53
20,COc1ccc(N(CC(=O)Nc2cc(OC)cc(OC)c2)S(=O)(=O)c2c(C)n[nH]c2C)cc1,10.3
21,Cc1cc(N2C(=O)CC(N3CCN(C(c4ccccc4)c4ccccc4)CC3)C2=O)no1 (stereo not drawn),-14.9
22,NNC(=O)c1nnn(-c2nonc2N)c1CN1CCCC1,14

row,SMILES,"hERG current change (%, negative = inhibition) at 10uM [%]"
1,Cc1ccc(C)c(S(=O)(=O)NCc2ccc(C(=O)NCc3ccco3)cc2)c1,-29.1
2,COc1ccc(CCNC(=O)Cc2nn(C)c(=O)c3ccccc23)cc1OC,0.902
3,O=C(NCCN1C(=O)S/C(=C\c2ccc(Cl)cc2Cl)C1=O)C1=COCCO1,-6.04
4,CCc1c(C2(O)CCCCC2)[nH]c2c(C(=O)OC)cc(Cl)cc12,12
5,O=c1c2ccccc2n2c(=S)[nH]nc2n1-c1ccccc1,38.4
6,Cc1c(OCC(=O)NCCN2CCOCC2)ccc2c(-c3ccccc3)cc(=O)oc12,3.21
7,Cc1ccc(NC(=O)CCn2cccc2)cc1F,9.94
8,CS(=O)(=O)n1nc(-c2ccccc2)nc1NCc1ccco1,-5.05
9,CCOC(=O)C1=C(COC(=O)COc2cc(C)ccc2C)NC(=O)NC1C (stereo not drawn),9.23
10,CN(CCNC(=O)C1CC(=O)N(c2ccc(F)c(Cl)c2)C1)Cc1ccccc1 (stereo not drawn),-52.5
11,N[C@@]1(C(=O)O)CC[C@@H](C(=O)O)C1.O,13.1
12,CCN(c1ccccc1)S(=O)(=O)c1cccc(C(=O)N2CCN(S(=O)(=O)c3ccccc3)CC2)c1,0.499
13,Cc1ncc([N+](=O)[O-])n1CC(=O)N/N=C/c1ccc(F)cc1,-13.6
14,COc1ccc(C2(c3ccc(OC)cc3)NC(=O)NC2=O)cc1,15.6
15,O=C(CC1SC2=NCCN2C1=O)Nc1ccc(Br)cc1 (stereo not drawn),8.33
16,O=C(COC(=O)c1cccc(S(=O)(=O)N2CCN(c3ccccc3)CC2)c1)NCC1CCCO1 (stereo not drawn),-2.84
17,CC(=O)N(Cc1ccc(Cl)cc1)c1cnccn1,19.1
18,CCOC(=O)C1CCCN(C(=O)Cn2cccc2C(=O)c2ccccc2)C1 (stereo not drawn),-11.5
19,COC(=O)CSc1nc(C)c(C)c(C)c1C(N)=O,11.7
20,CC(=O)NC1(c2nnnn2CCOC(=O)Nc2ccc(Cl)cc2)CCCC1,-15.8
21,CCOC(=O)c1nnn(-c2ccccc2)c1C,-6.45
22,Cn1nc(-c2ccccc2)c2cc(C(=O)O)sc21,34.4

row,SMILES,"hERG current change (%, negative = inhibition) at 10uM [%]"
1,CC1=CC(=O)C(C(C)=Nc2ccccc2Cl)C(=O)O1 (stereo not drawn),-21.4
2,O=C(/C=C/c1ccccc1)N/C(=C/c1ccccc1)C(=O)Nc1ccccc1O,-27.3
3,O=C(O)c1ccc2[nH]c3c(c2c1)CCCC3,18.8
4,COCCCNC(=O)CCCn1c(=O)[nH]c2ccccc2c1=O,17.9
5,COc1ccc2oc(-c3ccccc3[N+](=O)[O-])cc(=O)c2c1,20.4
6,Cc1ccc(Nc2ncnc3sccc23)c(C)c1,9.96
7,Cc1ccc(NC(=O)CN2CCC(Cc3ccccc3)CC2)cc1S(=O)(=O)N(C)C.O=C(O)C(=O)O,9.69
8,CCN(CC)S(=O)(=O)c1ccc(N2CCN(c3cccc(OC)c3)CC2)c([N+](=O)[O-])c1,11.5
9,O=c1c(Cc2c(F)cccc2Cl)c(O)ccn1Cc1ccc(F)cc1,-0.211
10,Cc1ccc(N(CC(N)=O)C2SC(=O)N(Cc3cccc(C(=O)O)c3)C2=O)cc1 (stereo not drawn),21.8
11,COc1ccccc1N1CCN(Cc2cc(=O)c(OCC#N)co2)CC1,12.5
12,Cn1c(=O)[nH]c(=O)c2c1nc(N1CCCCCC1)n2CCSc1nc2ccccc2[nH]1,-11.2
13,Cc1cc(C(=O)Nc2cccc3ncccc23)no1,7.4
14,Cc1ccc(/C(N)=N/OC(=O)c2ccc3ccccc3c2)cc1,0.62
15,COc1ccc(NC(=O)COc2ccc(/C=C/c3cc[n+](C)cc3)cc2OC)cc1.[I-],25.1
16,COc1ccc(NC(=O)/C=C/C(=O)O)c(OC)c1,11.7
17,CCCNS(=O)(=O)c1ccc(NC(=O)c2ccccn2)cc1,-1.12
18,O=C(CCCOc1ccc(Cl)cc1)Nc1nncs1,-28.9
19,Nc1nonc1C(=O)N/N=C/c1ccncc1,8.51
20,CCN(CC(=O)NCc1cccs1)S(=O)(=O)c1ccc(NC(C)=O)cc1,-7.22
21,CCN(CC)CCNC(=O)c1ccc(NC(=O)CC(NC(=O)c2ccccc2Cl)c2ccccc2)cc1 (stereo not drawn),16
